Assay results published in the RNAGym collection of RNA variant scans (doi:10.1093/nar/gkz1192).
The source gives no read counts; variants with many changes may rest on few reads.

B1: CPEB3 Ribozyme (parent)
chain: UAACAGGGGGCCACAGCAGAAGCGUUCACGUCGCAGCCCCUGUCAGAUUCUGGUGAAUCUGCGAAUUCUGCUGUAUAUCUC

Variants of: B1
Test: self-cleavage, relative activity (ratio to wild type); higher = more cleavage; in vitro, sequencing
How it was run: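 Barcoded CPEB3 ribozyme mutants, produced by rounds of error-prone PCR, self-cleaved while being transcribed with T7 RNA polymerase for 5 hours at 37°C and during a subsequent 15 min DNase I step before EDTA was added. Sequencing of template-switched cDNA on Illumina gave cleaved and total reads, and DNA sequencing assigned barcodes to variants. Each variant's relative activity is its cleaved/total read fraction divided by the unmutated ribozyme's fraction, averaged across three batches. A variant needed a minimum of 5 reads.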
G9U A20U A28U A47G A64U showed a self-cleavage of 0.06.
For G9A A13G C40A A56G U58C G63U, the self-cleavage was 0.04.
With G9U U25A A45G U51A G55A U80C the self-cleavage was 0.08.
G9A C12U A35C U43C U49C U54G A56U showed a self-cleavage of 0.14.
Work on G9C A20U U51C U54G yielded a self-cleavage of 0.05.
With G9U A18G A35C U72C U74A U80C the self-cleavage was 0.34.
G9A C12G A13G G42U A64U U72C showed a self-cleavage of 0.05.
With G9C U41C A56G A64G the self-cleavage was 0.19.
G9A U43C U49C U74A showed a self-cleavage of 0.21.
Variant G9C A15U A20U U54C has a self-cleavage of 0.2.
In the case of G9A A35C A57U, the self-cleavage is reported as 0.39.
G9U A20U U48C G73U gave a self-cleavage of 0.05.
In the case of G8U C14U A15G C59G U78A, the self-cleavage is reported as 0.04.
G9C A21G A35U A45U A77C showed a self-cleavage of 0.05.
Variant G8A U25C U41C U43C A56G U66C has a self-cleavage of 0.06.
G8A G46C A77U showed a self-cleavage of 0.13.
G9A C40G U43C U66C U67C C71U U78C showed a self-cleavage of 0.02.
For G8C A15G A77G, the self-cleavage was 0.33.
With G9U A13G C14U A35G A64G the self-cleavage was 0.2.
With G8C A18U A35U A65G U67C U74G the self-cleavage was 0.07.
Variant G9U A21G A35U A45G A47G has a self-cleavage of 0.05.
G9A A15G C37U showed a self-cleavage of 0.21.
For G9U U25C A56U U72C A77U, the self-cleavage was 0.05.
With G10A A13G A15U C17U U41C G46U the self-cleavage was 0.26.
Work on G8U U58C G61A yielded a self-cleavage of 0.09.
Variant G10A A13G A18C A21G U72A U74A U80A has a self-cleavage of 0.3.
G8U C44A A56G U60C gave a self-cleavage of 0.14.
Work on G9A U25C G61A A64G A65U U78C yielded a self-cleavage of 0.05.
With G9A A20G U41A A56G the self-cleavage was 0.06.
G9A A18U U60C A64G gave a self-cleavage of 0.05.
For G9A A21G A75U, the self-cleavage was 0.06.
In the case of G8U U26A U41C U49C U76C, the self-cleavage is reported as 0.15.
Variant G8A U58C U69A has a self-cleavage of 0.13.
With G9U A20C A21C U43A A57G U78C the self-cleavage was 0.07.
For G9A U41C U43A A56U A75C U78C, the self-cleavage was 0.12.
Variant G9A C17U U26A A28G A35G U76C has a self-cleavage of 0.07.
For G9C C14U U41C U43C A56G A64G, the self-cleavage was 0.12.
G8A U26G U31A A47C showed a self-cleavage of 0.04.
G9A C39U U69C A75U U76A showed a self-cleavage of 0.05.
In the case of G9C A18G C38A A47G, the self-cleavage is reported as 0.05.
G8A G24A A56G A64U U66C showed a self-cleavage of 0.06.
For G9U A35G U58C U74A, the self-cleavage was 0.05.
G9A G16A A20G A35G U60G showed a self-cleavage of 0.05.
For G9U A13U A18U A64U, the self-cleavage was 0.05.
Variant G9C A28G A65G U66C has a self-cleavage of 0.07.
Work on G8C A65G G73U U80A yielded a self-cleavage of 0.06.
For G8A G19A G52A A64G, the self-cleavage was 0.18.
In the case of G8U A45G U48C G53U U72C, the self-cleavage is reported as 0.07.
For G8C U54C U76C, the self-cleavage was 0.25.
For G9U A18G C27U U72A, the self-cleavage was 0.06.
Work on G8C A18G U58A yielded a self-cleavage of 0.48.
G8U C17U A65G U69G gave a self-cleavage of 0.07.
G8A U26C A35U U49C gave a self-cleavage of 0.15.
For G9A C44U A47U U51A U80C, the self-cleavage was 0.25.
G8U A15G A21G U72G gave a self-cleavage of 0.11.
G9A A35G G42U A57G showed a self-cleavage of 0.03.
In the case of G8U G9A G53A, the self-cleavage is reported as 0.44.
Work on G8U U72G C81U yielded a self-cleavage of 0.1.
Work on G9A C34U C40G A45U U49A yielded a self-cleavage of 0.13.
G9A U31C C59U U60C U72A showed a self-cleavage of 0.04.
G9A A15U A18U A57G U60A showed a self-cleavage of 0.46.
Variant G8A U25C A45U has a self-cleavage of 0.4.
Work on G9A U41C A45G U60C C71U yielded a self-cleavage of 0.15.
Work on G9A U41C A64G yielded a self-cleavage of 0.17.
Variant G8U C23U A64G G70C has a self-cleavage of 0.04.
Work on G8A C37U A56G yielded a self-cleavage of 0.06.
In the case of G9A U26C U49C, the self-cleavage is reported as 0.22.
With G8A U41A U58C A64G A65G C68G the self-cleavage was 0.04.
Variant G9A U41C U49C U60C A65G U78C has a self-cleavage of 0.08.
Work on G8U A56U G63A U69C U76A yielded a self-cleavage of 0.04.
In the case of G9A U31C U51C U54C, the self-cleavage is reported as 0.17.
G9C U43C A56U showed a self-cleavage of 0.31.
G9U C27A C32U G46U U51C C62A showed a self-cleavage of 0.03.
In the case of G8U U54C U78C, the self-cleavage is reported as 0.35.
With G8A U26C A35G U41A A64U U69A U74C the self-cleavage was 0.03.
With G9U U41G A56U U80A the self-cleavage was 0.06.
G8U A18G C39G A57G U60A showed a self-cleavage of 0.03.
Variant G8A U48A U80C has a self-cleavage of 0.08.
In the case of G8C A18G A20G A28G, the self-cleavage is reported as 0.29.
G8C C14A A35G U51A U80C gave a self-cleavage of 0.12.
Variant G9A A21G U31A A64G U69C U76C has a self-cleavage of 0.08.
G8A U31A C32U U66C gave a self-cleavage of 0.17.
For G9A A28U C29G U54C, the self-cleavage was 0.02.
For G8U A20U A21C C40U U60C, the self-cleavage was 0.05.
For G9U C50U A77G, the self-cleavage was 0.21.
With G8U U41C U69C U76C the self-cleavage was 0.11.
Variant G9U U25G G42U has a self-cleavage of 0.06.
With G8C C34A U43C U58C U72C the self-cleavage was 0.14.
For G9A A45U A47G U60A, the self-cleavage was 0.33.
G8U A28G A64G G70C showed a self-cleavage of 0.1.
G9A A13G C14U A20G U41C G42A U80C gave a self-cleavage of 0.05.
For G8U U41A G52A A64G C71G, the self-cleavage was 0.04.
In the case of G8U A15U A20G A56G U67A U74A U76A, the self-cleavage is reported as 0.02.
Work on G8A C50U U51C U54C yielded a self-cleavage of 0.1.
G8A G46U A47G gave a self-cleavage of 0.14.
With G9A C12U A13U U25C A45C A56G the self-cleavage was 0.06.
With G8U A64U U72C the self-cleavage was 0.04.
G8U A13G G33A U60A U78C gave a self-cleavage of 0.07.
With G9A A13U U26G U41A A45G U51C the self-cleavage was 0.05.
With G8C A18G G30U U43A U60C U78A the self-cleavage was 0.05.
G8U U41A U69A gave a self-cleavage of 0.15.
G9A A47G U60C U76A gave a self-cleavage of 0.12.
G9A A35U U48A U51C gave a self-cleavage of 0.04.
For G9A C38U A47G U69C U72C, the self-cleavage was 0.38.
G8U A28G U54C U66G showed a self-cleavage of 0.11.
With G9A C11U A47G U58A U69C the self-cleavage was 0.05.
G8C A18G G19A C39G U69A showed a self-cleavage of 0.05.
With G8A G52A U54C the self-cleavage was 0.08.
With G9A A47G U54C U78G the self-cleavage was 0.06.
G8C U43A A65U U76C showed a self-cleavage of 0.08.
Work on G8A U25G U31A U51G yielded a self-cleavage of 0.06.
In the case of G8A U41C A57G U74C, the self-cleavage is reported as 0.1.
Work on G9U C34U U66C U72A U78C yielded a self-cleavage of 0.04.
G8U A57G A64G showed a self-cleavage of 0.11.
Work on G9U U31C A35G A45G U78C yielded a self-cleavage of 0.19.
G8C A15U U25C A56G A57C C62U A64G showed a self-cleavage of 0.09.
G9A U25A A28G U58C gave a self-cleavage of 0.2.
For G9A A57G C71G, the self-cleavage was 0.13.
For G9A G36A U51G A65G, the self-cleavage was 0.07.
G8U A13U U26C C32U U54A U60G U69A gave a self-cleavage of 0.07.
G9C A65G U67C showed a self-cleavage of 0.05.
For G9A U25A U43C, the self-cleavage was 0.27.
With G9A U41C U49C the self-cleavage was 0.07.
For G9A A35G A64U U72C, the self-cleavage was 0.15.
Variant G9C A13U A20G U26A G33A A56U U67C has a self-cleavage of 0.16.
For G8A G22C A35G U60C, the self-cleavage was 0.2.
With G8A U51C A64G the self-cleavage was 0.06.
G9A U25G U60C U80C showed a self-cleavage of 0.17.
For G9A A21G U41A U67C, the self-cleavage was 0.13.
With G9C U31G U41G A45U U78C the self-cleavage was 0.1.
G9A A15G A21G G36C A47G U80A showed a self-cleavage of 0.02.
Variant G9U A13G A18U U31A U69C U72C has a self-cleavage of 0.1.
For G9U A21G U60G U78C, the self-cleavage was 0.06.
Work on G9U C23U U26C A56U U67A yielded a self-cleavage of 0.16.
With G8U A18U U25C U43G U49A U69C the self-cleavage was 0.09.
With G8C A21G A28G C40G G63A U69C C81G the self-cleavage was 0.04.
In the case of G9U U54C G61A U67A C68A, the self-cleavage is reported as 0.16.
In the case of G9A A13C A18U U31C U51G U67C G70A, the self-cleavage is reported as 0.05.
In the case of G8U A13C A18G U25C, the self-cleavage is reported as 0.17.
G9A A18U A20G U66C gave a self-cleavage of 0.28.
Work on G9U U41A G63U yielded a self-cleavage of 0.06.
Variant G9U C29U U51C U67C has a self-cleavage of 0.06.
Work on G9A U54G A56G yielded a self-cleavage of 0.06.
In the case of G9U U58C U78C, the self-cleavage is reported as 0.29.
G8U U25A U26C C27A A56G U78C showed a self-cleavage of 0.1.
For G9U U26A U67C, the self-cleavage was 0.31.
For G8A G10U G24U A45G A75U, the self-cleavage was 0.04.
In the case of G8C A47U A77C, the self-cleavage is reported as 0.13.
G8U U31C U43G A57G showed a self-cleavage of 0.1.
Work on G9U A15G A20G A45C yielded a self-cleavage of 0.25.
With G9U A13G C39U the self-cleavage was 0.07.
With G8U U43A U60C A64U U78C U80C the self-cleavage was 0.05.
With G9C G19C U60C G61U C68U the self-cleavage was 0.03.
In the case of G9A C23U A35G U41A U58C G70A, the self-cleavage is reported as 0.17.
With G9U A15G C27A G42A U51G the self-cleavage was 0.14.
Variant G8A G52C U69G has a self-cleavage of 0.05.
In the case of G8U U26C A28G A35G U58C A64G U67C, the self-cleavage is reported as 0.05.
Work on G9A A15U A35U U72A U78A yielded a self-cleavage of 0.03.
In the case of G9A U26G A56U, the self-cleavage is reported as 0.18.
In the case of G8U A45G U58G, the self-cleavage is reported as 0.3.
With G9A U26C A28U U48A U80A the self-cleavage was 0.48.
Variant G9C U48A C71G has a self-cleavage of 0.03.
With G9A A18U G30A G36A A45G U78C the self-cleavage was 0.04.
Work on G9A C17A G22U U26C yielded a self-cleavage of 0.2.
Work on G8U C38A C40U G53U U54C U76A yielded a self-cleavage of 0.04.
Work on G9A G10C G30U U58C U78A yielded a self-cleavage of 0.16.
Variant G8C A18U U67C U80A has a self-cleavage of 0.35.
